The chains are these.
B1: asd L176W (protein)
chain: MKNVGFIGWRGMVGSVLMQRMVEERDFDAIRPVFFSTSQLGQAAPSFGGTTGTLQDAFDLEALKALDIIVTCQGGDYTNEIYPKLRESGWQGYWIDAASSLRMKDDAIIILDPVNQDVITDGLNNGIRTFVGGNCTVSLMLMSLGGLFANDLVDWVSVATYQAASGGGARHMRELWTQMGHLYGHVADELATPSSAILDIERKVTTLTRSGELPVDNFGVPLAGSLIPWIDKQLDNGQSREEWKGQAETNKILNTSSVIPVDGLCVRVGALRCHSQAFTIKLKKDVSIPTVEELLAAHNPWAKVVPNDREITMRELTPAAVTGTLTTPVGRLRKLNMGPEFLSAFTVGDQLLWGAAEPLRRMLRQLA
B2: asd I109A (protein)
chain: MKNVGFIGWRGMVGSVLMQRMVEERDFDAIRPVFFSTSQLGQAAPSFGGTTGTLQDAFDLEALKALDIIVTCQGGDYTNEIYPKLRESGWQGYWIDAASSLRMKDDAIAILDPVNQDVITDGLNNGIRTFVGGNCTVSLMLMSLGGLFANDLVDWVSVATYQAASGGGARHMRELLTQMGHLYGHVADELATPSSAILDIERKVTTLTRSGELPVDNFGVPLAGSLIPWIDKQLDNGQSREEWKGQAETNKILNTSSVIPVDGLCVRVGALRCHSQAFTIKLKKDVSIPTVEELLAAHNPWAKVVPNDREITMRELTPAAVTGTLTTPVGRLRKLNMGPEFLSAFTVGDQLLWGAAEPLRRMLRQLA
B3: msbA L16Q (protein)
chain: MHNDKDLSTWQTFRRQWPTIAPFKAGLIVAGVALILNAASDTFMLSLLKPLLDDGFGKTDRSVLVWMPLVVIGLMILRGITSYVSSYCISWVSGKVVMTMRRRLFGHMMGMPVSFFDKQSTGTLLSRITYDSEQVASSSSGALITVVREGASIIGLFIMMFYYSWQLSIILIVLAPIVSIAIRVVSKRFRNISKNMQNTMGQVTTSAEQMLKGHKEVLIFGGQEVETKRFDKVSNRMRLQGMKMVSASSISDPIIQLIASLALAFVLYAASFPSVMDSLTAGTITVVFSSMIALMRPLKSLTNVNAQFQRGMAACQTLFTILDSEQEKDEGKRVIERATGDVEFRNVTFTYPGRDVPALRNINLKIPAGKTVALVGRSGSGKSTIASLITRFYDIDEGEILMDGHDLREYTLASLRNQVALVSQNVHLFNDTVANNIAYARTEQYSREQIEEAARMAYAMDFINKMDNGLDTVIGENGVLLSGGQRQRIAIARALLRDSPILILDEATSALDTESERAIQAALDELQKNRTSLVIAHRLSTIEKADEIVVVEDGVIVERGTHNDLLEHRGVYAQLHKMQFGQ
B4: msbA V29W (protein)
chain: MHNDKDLSTWQTFRRLWPTIAPFKAGLIWAGVALILNAASDTFMLSLLKPLLDDGFGKTDRSVLVWMPLVVIGLMILRGITSYVSSYCISWVSGKVVMTMRRRLFGHMMGMPVSFFDKQSTGTLLSRITYDSEQVASSSSGALITVVREGASIIGLFIMMFYYSWQLSIILIVLAPIVSIAIRVVSKRFRNISKNMQNTMGQVTTSAEQMLKGHKEVLIFGGQEVETKRFDKVSNRMRLQGMKMVSASSISDPIIQLIASLALAFVLYAASFPSVMDSLTAGTITVVFSSMIALMRPLKSLTNVNAQFQRGMAACQTLFTILDSEQEKDEGKRVIERATGDVEFRNVTFTYPGRDVPALRNINLKIPAGKTVALVGRSGSGKSTIASLITRFYDIDEGEILMDGHDLREYTLASLRNQVALVSQNVHLFNDTVANNIAYARTEQYSREQIEEAARMAYAMDFINKMDNGLDTVIGENGVLLSGGQRQRIAIARALLRDSPILILDEATSALDTESERAIQAALDELQKNRTSLVIAHRLSTIEKADEIVVVEDGVIVERGTHNDLLEHRGVYAQLHKMQFGQ
B5: msbA I28W (protein)
chain: MHNDKDLSTWQTFRRLWPTIAPFKAGLWVAGVALILNAASDTFMLSLLKPLLDDGFGKTDRSVLVWMPLVVIGLMILRGITSYVSSYCISWVSGKVVMTMRRRLFGHMMGMPVSFFDKQSTGTLLSRITYDSEQVASSSSGALITVVREGASIIGLFIMMFYYSWQLSIILIVLAPIVSIAIRVVSKRFRNISKNMQNTMGQVTTSAEQMLKGHKEVLIFGGQEVETKRFDKVSNRMRLQGMKMVSASSISDPIIQLIASLALAFVLYAASFPSVMDSLTAGTITVVFSSMIALMRPLKSLTNVNAQFQRGMAACQTLFTILDSEQEKDEGKRVIERATGDVEFRNVTFTYPGRDVPALRNINLKIPAGKTVALVGRSGSGKSTIASLITRFYDIDEGEILMDGHDLREYTLASLRNQVALVSQNVHLFNDTVANNIAYARTEQYSREQIEEAARMAYAMDFINKMDNGLDTVIGENGVLLSGGQRQRIAIARALLRDSPILILDEATSALDTESERAIQAALDELQKNRTSLVIAHRLSTIEKADEIVVVEDGVIVERGTHNDLLEHRGVYAQLHKMQFGQ
B6: msbA V29A (protein)
chain: MHNDKDLSTWQTFRRLWPTIAPFKAGLIAAGVALILNAASDTFMLSLLKPLLDDGFGKTDRSVLVWMPLVVIGLMILRGITSYVSSYCISWVSGKVVMTMRRRLFGHMMGMPVSFFDKQSTGTLLSRITYDSEQVASSSSGALITVVREGASIIGLFIMMFYYSWQLSIILIVLAPIVSIAIRVVSKRFRNISKNMQNTMGQVTTSAEQMLKGHKEVLIFGGQEVETKRFDKVSNRMRLQGMKMVSASSISDPIIQLIASLALAFVLYAASFPSVMDSLTAGTITVVFSSMIALMRPLKSLTNVNAQFQRGMAACQTLFTILDSEQEKDEGKRVIERATGDVEFRNVTFTYPGRDVPALRNINLKIPAGKTVALVGRSGSGKSTIASLITRFYDIDEGEILMDGHDLREYTLASLRNQVALVSQNVHLFNDTVANNIAYARTEQYSREQIEEAARMAYAMDFINKMDNGLDTVIGENGVLLSGGQRQRIAIARALLRDSPILILDEATSALDTESERAIQAALDELQKNRTSLVIAHRLSTIEKADEIVVVEDGVIVERGTHNDLLEHRGVYAQLHKMQFGQ
B7: msbA I28Q (protein)
chain: MHNDKDLSTWQTFRRLWPTIAPFKAGLQVAGVALILNAASDTFMLSLLKPLLDDGFGKTDRSVLVWMPLVVIGLMILRGITSYVSSYCISWVSGKVVMTMRRRLFGHMMGMPVSFFDKQSTGTLLSRITYDSEQVASSSSGALITVVREGASIIGLFIMMFYYSWQLSIILIVLAPIVSIAIRVVSKRFRNISKNMQNTMGQVTTSAEQMLKGHKEVLIFGGQEVETKRFDKVSNRMRLQGMKMVSASSISDPIIQLIASLALAFVLYAASFPSVMDSLTAGTITVVFSSMIALMRPLKSLTNVNAQFQRGMAACQTLFTILDSEQEKDEGKRVIERATGDVEFRNVTFTYPGRDVPALRNINLKIPAGKTVALVGRSGSGKSTIASLITRFYDIDEGEILMDGHDLREYTLASLRNQVALVSQNVHLFNDTVANNIAYARTEQYSREQIEEAARMAYAMDFINKMDNGLDTVIGENGVLLSGGQRQRIAIARALLRDSPILILDEATSALDTESERAIQAALDELQKNRTSLVIAHRLSTIEKADEIVVVEDGVIVERGTHNDLLEHRGVYAQLHKMQFGQ
B8: msbA I28A (protein)
chain: MHNDKDLSTWQTFRRLWPTIAPFKAGLAVAGVALILNAASDTFMLSLLKPLLDDGFGKTDRSVLVWMPLVVIGLMILRGITSYVSSYCISWVSGKVVMTMRRRLFGHMMGMPVSFFDKQSTGTLLSRITYDSEQVASSSSGALITVVREGASIIGLFIMMFYYSWQLSIILIVLAPIVSIAIRVVSKRFRNISKNMQNTMGQVTTSAEQMLKGHKEVLIFGGQEVETKRFDKVSNRMRLQGMKMVSASSISDPIIQLIASLALAFVLYAASFPSVMDSLTAGTITVVFSSMIALMRPLKSLTNVNAQFQRGMAACQTLFTILDSEQEKDEGKRVIERATGDVEFRNVTFTYPGRDVPALRNINLKIPAGKTVALVGRSGSGKSTIASLITRFYDIDEGEILMDGHDLREYTLASLRNQVALVSQNVHLFNDTVANNIAYARTEQYSREQIEEAARMAYAMDFINKMDNGLDTVIGENGVLLSGGQRQRIAIARALLRDSPILILDEATSALDTESERAIQAALDELQKNRTSLVIAHRLSTIEKADEIVVVEDGVIVERGTHNDLLEHRGVYAQLHKMQFGQ
B9: msbA V29Q (protein)
chain: MHNDKDLSTWQTFRRLWPTIAPFKAGLIQAGVALILNAASDTFMLSLLKPLLDDGFGKTDRSVLVWMPLVVIGLMILRGITSYVSSYCISWVSGKVVMTMRRRLFGHMMGMPVSFFDKQSTGTLLSRITYDSEQVASSSSGALITVVREGASIIGLFIMMFYYSWQLSIILIVLAPIVSIAIRVVSKRFRNISKNMQNTMGQVTTSAEQMLKGHKEVLIFGGQEVETKRFDKVSNRMRLQGMKMVSASSISDPIIQLIASLALAFVLYAASFPSVMDSLTAGTITVVFSSMIALMRPLKSLTNVNAQFQRGMAACQTLFTILDSEQEKDEGKRVIERATGDVEFRNVTFTYPGRDVPALRNINLKIPAGKTVALVGRSGSGKSTIASLITRFYDIDEGEILMDGHDLREYTLASLRNQVALVSQNVHLFNDTVANNIAYARTEQYSREQIEEAARMAYAMDFINKMDNGLDTVIGENGVLLSGGQRQRIAIARALLRDSPILILDEATSALDTESERAIQAALDELQKNRTSLVIAHRLSTIEKADEIVVVEDGVIVERGTHNDLLEHRGVYAQLHKMQFGQ
B10: mreC V162D (protein)
chain: MKPIFSRGPSLQIRLILAVLVALGIIIADSRLGTFSQIRTYMDTAVSPFYFVSNAPRELLDGVSQTLASRDQLELENRALRQELLLKNSELLMLGQYKQENARLRELLGSPLRQDEQKMVTQVISTVNDPYSDQVVIDKGSVNGVYEGQPVISDKGVVGQVDAVAKLTSRVLLICDATHALPIQVLRNDIRVIAAGNGCTDDLQLEHLPANTDIRVGDVLVTSGLGGRFPEGYPVAVVSSVKLDTQRAYTVIQARPTAGLQRLRYLLLLWGADRNGANPMTPEEVHRVANERLMQMMPQVLPSPDAMGPKLPEPATGIAQPTPQQPATGNAATAPAAPTQPAANRSPQRATPPQSGAQPPARAPGGQ

± gives the standard deviation of the averaged measurements. Laboratory Escherichia coli strains with one amino-acid change in an essential protein, pooled on minimal glucose agar with carbenicillin or gentamicin at twice the control MIC (plus kanamycin and chloramphenicol for the plasmids), 48 h. Fold change of barcode share against drug-free plates; higher = less susceptible. Active = above 20 in both replicates (the paper's putatively resistant). '<' = one read or none on drug, '>' = one read or none on a drug-free plate. Shares are relative, so most strains fall below 1 when a few take over. Listed are strains with at least 15 reads on both drug-free plates, and hits; most hits rest on fewer reference reads. Replicate rank correlation about 0.5. Edits are read from barcodes.

The first data set has as its target Escherichia coli (laboratory strain). Nature of the data set: barcode share on antibiotic plates over drug-free plates; higher = less susceptible. As to conditions: antibiotic: carbenicillin; 2× MIC (3.1 µg/mL). The method, then:
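A pool of E. coli strains, each edited to carry one amino-acid change in an essential protein, was grown for 48 h on minimal glucose agar with or without antibiotic; strain barcodes were sequenced; mean of two replicates.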
For the protein B1, the “fold change of barcode share” value is 0.461 ± 0.059.

On to B2, for which the “fold change of barcode share” value stood at 0.433 ± 0.028. The same measure, in the same setting: the value for B3 was 0.286 ± 0.088. On the same count and under the same terms, to B4 belongs 0.228 ± 0.0039; to B5, 0.256 ± 0.082.

Take B6: the “fold change of barcode share” value was 0.274 ± 0.082.

Take B7: the “fold change of barcode share” value came out at 0.243 ± 0.05.

Regarding B8, the “fold change of barcode share” value is 0.271 ± 0.034.

Turning to B9, the “fold change of barcode share” value stood at 0.245 ± 0.031. Take B10: the “fold change of barcode share” value is 0.213 ± 0.011.

The same data set, now with this note: antibiotic: gentamicin; 2× MIC (MIC 0.45 µg/mL).
In the case of B1, the “fold change of barcode share” value was 0.014 ± 0.013. For the protein B2, the “fold change of barcode share” value worked out at 0.00889 ± 0.0076. Consider B4, for which the “fold change of barcode share” value is 0.00417 ± 0.0014. Take B5: the “fold change of barcode share” value was 0.0248 ± 0.01. On the same count and under the same terms, the value for B6 was 0.0033 ± 0.0027.

For B7, the “fold change of barcode share” value amounted to 0.00978 ± 0.0048.

For the protein B8, the “fold change of barcode share” value was 0.0135 ± 0.001. Still for that read-out and setting: to B9 belongs 0.00431 ± 0.0026. Still for that read-out and setting: to B10 belongs 0.00436 ± 0.00056.

Values taken from the supplement of paper PMC11876631.
